Laboratory results reported in a compilation of properties of binary mixtures (doi:10.1021/je300316a).
Some of these densities may be calculated back from excess volumes.

Assay: xn = mol fraction of the nth substance listed
Settings: 101 kPa

CS(C)=O + CC[n+]1ccn(C)c1.F[B-](F)(F)F
x1 = 1
Settings	mass density [kg/m3]
298.15 K	1095.7
303.15 K	1090.7
333.15 K	1060.6
343.15 K	1050.6
353.15 K	1040.5

CC#N + CCCCCC[n+]1ccn(C)c1.F[B-](F)(F)F
x1 = 1
Settings	mass density [kg/m3]
293.15 K	782
298.15 K	776.6
303.15 K	771.1
313.15 K	760.2
323.15 K	749.1
333.15 K	737.9
343.15 K	726.4

CCCCCC[n+]1ccn(C)c1.F[B-](F)(F)F + CC#N
mass density [kg/m3]
Settings	x2 = 0	x2 = 0.0956	x2 = 0.1917	x2 = 0.3374	x2 = 0.4303	x2 = 0.5384	x2 = 0.5934	x2 = 0.7052	x2 = 0.7951	x2 = 0.896
293.15 K	1148.8	1141.5	1131.7	1113.7	1099.3	1077.6	1063.6	–	985.5	912.5
298.15 K	1145.3	1138	–	1110	–	–	1059.6	–	981.2	907.8
303.15 K	1141.9	1134.5	1124.6	1106.4	1091.9	1069.9	1055.7	1019.6	976.9	903.1
313.15 K	1135	–	1117.5	1099.1	1084.5	1062.3	–	1011.4	–	893.7
323.15 K	1128.2	1120.7	1110.5	1091.9	1077.1	1054.6	1040.1	1003.3	959.6	884.2
333.15 K	1121.5	1113.8	1103.5	1084.7	1069.8	–	1032.4	995.1	950.9	874.7
343.15 K	1114.8	1107	1096.6	1077.6	–	1039.5	–	987	942.3	865.2

CC#N + CC[n+]1ccn(C)c1.F[B-](F)(F)F
x1 = 1
Settings	mass density [kg/m3]
293.15 K	782
303.15 K	771.1
323.15 K	749.1
333.15 K	737.9

CC[n+]1ccn(C)c1.F[B-](F)(F)F + CC#N
mass density [kg/m3]
Settings	x2 = 0	x2 = 0.0797	x2 = 0.1787	x2 = 0.2803	x2 = 0.3682	x2 = 0.4903	x2 = 0.5753	x2 = 0.7116	x2 = 0.8301
293.15 K	1290.6	–	–	1236.6	1213.4	1176.5	–	1073.4	985
298.15 K	1286.8	1273.2	1254.4	1232.6	1209.4	1172.4	–	1068.9	–
303.15 K	–	1269.3	1250.5	–	1205.4	1168.2	1134.8	1064.5	975.6
313.15 K	–	1261.7	–	1220.8	1197.4	1160.1	1126.5	–	966.3
323.15 K	1268	1254.2	1235.2	1213.1	1189.5	1152	–	–	956.9
333.15 K	1260.5	1246.7	1227.6	1205.4	1181.7	1144	1110	1038.3	947.5

CS(C)=O + CCCCCC[n+]1ccn(C)c1.F[B-](F)(F)F
x1 = 1
Settings	mass density [kg/m3]
293.15 K	1100.8
298.15 K	1095.7
303.15 K	1090.7
313.15 K	1080.7
323.15 K	1070.7
333.15 K	1060.6
343.15 K	1050.6
353.15 K	1040.5

CC[n+]1ccn(C)c1.F[B-](F)(F)F + CS(C)=O
mass density [kg/m3]
Settings	x2 = 0	x2 = 0.0872	x2 = 0.2021	x2 = 0.2931	x2 = 0.4098	x2 = 0.4781	x2 = 0.5718	x2 = 0.6689	x2 = 0.7866	x2 = 0.8959
293.15 K	1290.6	1283	–	1263.1	1249.2	–	–	1205.9	1176.8	–
298.15 K	1286.8	1279.1	–	–	1245.2	1235.7	1220.7	–	1172.4	1137.4
303.15 K	1283	–	–	–	1241.1	1231.7	1216.5	1197.4	1167.9	1132.7
313.15 K	–	1267.7	1257	1247.3	1233.1	1223.6	1208.3	1188.9	1159.1	–
323.15 K	1268	–	1249.3	1239.5	–	1215.5	1200.1	–	1150.4	1114.2
333.15 K	1260.5	1252.6	1241.7	1231.8	1217.4	–	1191.9	1172.1	1141.6	1104.9
343.15 K	1253.2	1245.2	1234.2	1224.2	–	1199.7	–	–	1132.9	1095.7
353.15 K	1245.9	1237.8	1226.7	1216.6	1201.8	1191.8	1175.8	–	1124.2	1086.4

CCCCCC[n+]1ccn(C)c1.F[B-](F)(F)F + CS(C)=O
mass density [kg/m3]
Settings	293.15 K	298.15 K	303.15 K	313.15 K	323.15 K	333.15 K	343.15 K	353.15 K
x2 = 0	1148.8	1145.3	1141.9	1135	–	1121.5	1114.8	1108.1
x2 = 0.1024	–	1143.5	1140.1	1133.2	1126.3	1119.5	–	1105.9
x2 = 0.2117	1145.2	1141.6	1138.1	1131	1124	–	1110	–
x2 = 0.2483	1144.5	1141	1137.4	1130.3	1123.2	1116.1	1109.1	1102.1
x2 = 0.3298	1143	–	1135.7	1128.5	1121.3	1114.1	1107	1099.9
x2 = 0.4286	1140.8	–	1133.4	–	–	1111.3	1104	1096.7
x2 = 0.4964	1138.9	1135.1	1131.4	1123.8	–	1108.9	1101.5	1094.1
x2 = 0.6143	1134.6	1130.7	1126.8	1119	1111.2	1103.5	1095.8	1088.2
x2 = 0.7169	1129.6	–	1121.5	1113.4	1105.3	1097.3	1089.3	–
x2 = 0.7505	1127.5	–	1119.3	1111	1102.9	1094.7	1086.5	1078.4
x2 = 0.884	1116.6	1112.2	–	–	–	1081	1072.2	1063.3
